# Results as given in the RNAGym collection of RNA variant scans (doi:10.7554/elife.90254).
# Read counts are not given, so values of variants with three or more changes are uncertain.
# B1: OR4K15 (parent)
# chain: GUUAACGGUCAUAGGCCAUGGAAACUAGGAGCACCAUUUCGCUGCCAGUGAAGAAAUGAACAAAGAAAAUCUGGGCCAGGCAGGCAUCAAAAGAAAUAGUCUUGCGCUCAACCAGAAAGUCUGUAAUCAUUUUAAGGGUA
# Variants of: B1
# Assay: self-cleavage, relative activity (ratio to wild type); higher = more cleavage; in vitro, sequencing; the parent is a self-cleaving ribozyme
row,Variant,self-cleavage
1,GUUAACGGUCAUAGGCCACGGAAACUUGGAGCACCAUCUCGCCGCCAGUGAAGAAAUGAGCAAGGAAAAUCUGGGCCAGGCAGGCAUCAAAAGAAGUAGUCUUGCGCUCAACCAGAAAGUCUGUAAUCAUUUUAAGGGUA [U19C A27U U38C U43C A60G A64G A96G],0.42
2,GUUAACGGUCAUAGGCCACGGAAACUAGGAGCACCAUUUCGCUGCCAGUGAGGAAAUGAACAAAGAAAAUCUGGGCCAGGCAGGCAUCAAAAGGAAUAGUCCUGCGCUCAACCAGAAAGUCUGUAAUCAUUUUAAGGGUA [U19C A52G A94G U102C],1.74
3,GUUAACGGUCAUAGGCCACGGAAACUAGGAGCACCGUUUCGCUGCCAGUGAAGAAAUGAACAAAGAAAAUCUGGGCCAGGCAGGCAUCAAAAGAAAUAGUCUUACGCUCAACCAGAAAGUCAGUAAUCAUUUUGAGGGUA [U19C A36G G104A U122A A134G],0.01
4,GUUAACGGUCAUAGGCCACGGAAACUAGGAGCUCCAUUUCGCUGCCAGCGAAGAAAUGAACAAAGAAAAUCUGGGCCAGGCAGGCAUCAAAAGAAAUAGUCCUGCGCUCAACCAGAAAGUCUGUAAUCAUUUUAAGGGUA [U19C A33U U49C U102C],1.88
5,GUUAACGGUCAUAGGCCACGGAGACUAGGAGCACCAUUUCGCUGCCAGUGAAGAGAUGAACAAAGAAAAUCUUGGCCAGGCAGGCAUCAAAAGAAACAGUCUUGCGCUCAACCAGAAAGUCUGUAAUCAUUUUAAGGGUA [U19C A23G A55G G73U U97C],0.16
6,GUUAACGGUCAUAGGCCACGGAAACUAGGAGCACCAUUUCGCUGCCAGUGAAGAAUUGAACAAAGAAAGUCUGGGCCUGGCAGGCAUCAAAAGAAAUAGUCUUGCGCUCAACCAGAAAGUCUGUAAUCAUUUUAAGGGUG [U19C A56U A69G A78U A140G],0.33
7,GUUAACGGUCAUAGGCCACGGAAACUAGGAGCACCAUUUCGCUGCCAGUGAAGAAAUGAGCAAAGAAAAUCUGGGCCAGGCGGGCAUCAAAAGAAAUAAUCUUGCGCUCAACCGGAAAGUCUGUAAUCAUUUUAAGGGUA [U19C A60G A82G G99A A114G],0
8,GUUAACGGUCAUAGGCCACGGAAACUAGGAGCGCCAUUUCGCUGCCGGUGAAGAAAUGAACAAAGAAAAUCUGGGCCAGGCAGGCAUCAAAAGAAAUAGUCUUGCGCUCAACCAGAAAGUCUGUAAUCAUUUUAAGGGUA [U19C A33G A47G],0.64
9,GUUAACGGUCAUAGGCCACGGAAGCUAGGAGCACCAUUUCGCUGCCAGUGUAGGAAUGAACAAAGAAAAUCUGGGCCAGGCAGGCAUCAAAAGAAAUAGCCUUGCGCUCAACCAGAAAGUCUGUAAUCAUUUUAAGGGUA [U19C A24G A51U A54G U100C],1.21
10,GUUAACGGUCAUAGGCCACGGAGACUAGGAGCACCAUUUCGCUGCCAGUGAAGAAAUGAACAAAGAAAAUCUGGGCCAGGCAGGCAUCAAAAGAAAUAGUCCUGCGCUCAACCAGGAAGUCUGUAAUCAUUUUAAGGGUA [U19C A23G U102C A116G],0.98
11,GUUAACGGUCAUAGGCCACGGAGACUAGGAGCACCACUUCGCUGCCAGUGAAGAAAUGAACGAAGAAAAUCUGGGCCAGGCAGGCAUCAAAAGAAAUAGUCUUGCGCUCAACCAGAAAGUCUGUAAUCAUUUUAAGGGUA [U19C A23G U37C A62G],1.57
12,GUUAACGGUCAUAGGCCACGGAAACUAGGAGCACCAUUUCGCUGCCAGUGAAGAACUGAACAAAGAAAAUCAGGGCCAGGCAGGCAUCAAAAGAAAUAGUCUUGCGCUCAACCAGAAAGUCUGUAAUCAUUUUAAGGGUA [U19C A56C U72A],0.13
13,GUUAACGGUCAUAGGCCACGGAAACUAGGAGCACCAUUUCGCUGCCAGUGUAGAAAUGAACAAAGAAAAUCUGGGCCAGGCAGGCAUCAAAAGAAAUAGUCUUGCGCUCAACCAGAGAGUCUGUAAUCAUUUUAAGGGUA [U19C A51U A117G],1.35
14,GUUAACGGUCAUAGGCCACGGAAACUAGGAGCACCGUUUCGCUGCCAGUGAAGAAAUGAACAAAGAAAAUCUGGGCCAGGCAGGCAUCAAAAGAAAUAGCCUUGCGCUCAACCGGAAAGUCUGUAAUCAUUUUAAGGGUA [U19C A36G U100C A114G],1.3
15,GUUAACGGUCAUAGGCCACGGAAACUAGGUGCACCAUUUCGCUGCCAGUGAAGAAAUGAACAAAGAAAAUCUGGGCCAGGCAGGCAUCAAAAGAGAUAGUCUUGCGCUCAACCAGAAAGUCUGUAAUCAUUUUAAGGGUA [U19C A30U A95G],1.49
16,GUUAACGGUCAUAGGCCACGGAAACUAGGAGCACCAUUUCGCUGCCAGUGAGGAAAUGAUCAAAGAAAAUCUGGGCCAGGCAGGCAUCAAAAGAAAUAGUCUUGCGCUCAACCAGAAAGUCUGUAAUCAUUUUAAGGGUA [U19C A52G A60U],1.32
17,GUUAACGGUCAUAGGCCACGGAAACUUGGAGCACCAUUUCGCUGCCAGUGAAGAAAUGAACAAGGAAAAUCUGGGCCAGGCAGGCAUCAAAAGAAAAAGUCUUGCGCUCAACCAGAAAGUCUGUAAUCAUUUUAAGGGUA [U19C A27U A64G U97A],1.19
18,GUUAACGGUCAUAGGCCACGGAAACUAGGAGCACCAUUUCGCUGCCAGUGAAGAAAUGGACAAAGAAAAUCUGGGCCAGGCAGGCAUCAAAAGAAAUAGUCUUGCGCUCAACCAGAAAGUCUGUAAUCAAUUUAAGGGUA [U19C A59G U130A],0.75
19,GUUAACGGUCAUAGGCCACGGAGACUAGGAGCACCAUUUCGCUGCCAGUGAAGAAAUGAACAAAGAAAUUCUGGGCCAGGCAGGCAUCAAAAGAAAUAGUCUUGUGCUCAACCAGAAAGUCUGUAAUCAUUUUAAGGGUA [U19C A23G A69U C105U],0.73
20,GUUAACGGUCAUAGGCCACGGAGACUAGGAGCACCAUUUCGCUGCCAGUGAAGAAAUGAACAAAGAAAGUCUGGGCCAGGCAGGCAUCAAAAGAAAUAGUCUUGCGCUCAACCAGAAAGUCUGUAAUCAUUUUAAGGGCA [U19C A23G A69G U139C],0.8
21,GUUAACGGUCAUAGGCCACGGAAGCUAGGAGCACCAUUUCGCUGCCAGUGGAGAAAUGAACAAAGAAAAUCUGGGCCAGGCAGGCAUCAAAAGAAAUAGUCUUGCGCACAACCAGAAAGUCUGUAAUCAUUUUAAGGGUA [U19C A24G A51G U108A],0.04
